Laboratory results taken from PubChem BioAssay (NCI).
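All cell lines were grown in 96-well plates and treated with compound for 48 hours. The concentration for 50% growth inhibition is given as GI50. TGI marks complete inhibition of growth.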

System: NCI-H322M lung
Assay: NCI tumour cell line growth inhibition, 48 h

COc1cccc(Oc2ccccc2NC(=O)CNC(=O)c2cccc3ccccc23)c1
GI50: 1.27 µM | TGI: > 25 µM

COC(=O)C(=O)Cc1nc2ccccc2o1
TGI: > 100 µM
